In publication PMC4336329 (PLoS ONE, 2015):
Hit rate of the full screen: of about 310,000 compounds, about 2,200 (0.71%) showed an effect of 50% or more. Effects have a minus sign here. Some of the results follow.

molecular target: human ether-à-go-go-related gene (hERG) potassium channel (human, UniProt Q12809); assay: primary screen, population patch clamp on CHO cells stably expressing hERG
Sequence (Q12809 whole entry, looked up): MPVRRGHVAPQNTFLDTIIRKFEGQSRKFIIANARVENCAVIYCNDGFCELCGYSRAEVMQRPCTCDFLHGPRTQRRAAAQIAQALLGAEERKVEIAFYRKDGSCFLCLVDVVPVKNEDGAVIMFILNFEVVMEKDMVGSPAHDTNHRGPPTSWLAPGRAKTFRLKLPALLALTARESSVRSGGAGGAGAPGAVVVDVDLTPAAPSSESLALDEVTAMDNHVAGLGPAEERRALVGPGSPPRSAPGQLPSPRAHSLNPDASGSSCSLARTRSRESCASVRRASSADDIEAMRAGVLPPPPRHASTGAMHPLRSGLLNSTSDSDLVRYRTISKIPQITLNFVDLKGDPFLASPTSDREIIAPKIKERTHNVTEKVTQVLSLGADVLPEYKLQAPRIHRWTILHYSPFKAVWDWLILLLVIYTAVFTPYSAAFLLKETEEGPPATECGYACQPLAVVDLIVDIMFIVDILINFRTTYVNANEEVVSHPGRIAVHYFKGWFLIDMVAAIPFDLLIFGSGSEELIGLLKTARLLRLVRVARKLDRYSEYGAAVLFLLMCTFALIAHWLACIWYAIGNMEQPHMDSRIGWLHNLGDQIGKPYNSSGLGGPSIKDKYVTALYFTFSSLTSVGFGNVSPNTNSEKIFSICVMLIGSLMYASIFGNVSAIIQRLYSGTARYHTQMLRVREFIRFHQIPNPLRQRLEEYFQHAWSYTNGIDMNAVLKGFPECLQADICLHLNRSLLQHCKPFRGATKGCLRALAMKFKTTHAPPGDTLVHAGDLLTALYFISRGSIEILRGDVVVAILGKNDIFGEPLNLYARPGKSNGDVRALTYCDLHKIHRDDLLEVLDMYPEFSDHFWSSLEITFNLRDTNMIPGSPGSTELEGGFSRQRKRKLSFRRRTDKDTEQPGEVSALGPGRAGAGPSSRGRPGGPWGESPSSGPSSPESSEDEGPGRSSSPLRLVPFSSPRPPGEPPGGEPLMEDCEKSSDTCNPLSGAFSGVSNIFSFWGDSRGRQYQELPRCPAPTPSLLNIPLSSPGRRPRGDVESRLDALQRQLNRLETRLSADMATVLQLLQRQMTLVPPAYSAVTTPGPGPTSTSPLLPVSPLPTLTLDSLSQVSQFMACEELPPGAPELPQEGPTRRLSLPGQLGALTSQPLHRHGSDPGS

Compared with `N=c1oc2ccc(Cl)cc2cc1C(=O)Nc1ccc(F)cc1`, `Cc1cc(NC(=O)C2CC(c3ccc(F)cc3)=NO2)n(-c2ccccc2)n1` (stereo not drawn) is higher in “hERG current change (%, negative = inhibition) at 1uM” value: 9.66% for the first, 12% for the second.

Compared with `O=C(Cn1nnc(-c2ccccc2F)n1)Nc1ccc(S(=O)(=O)NC2CCCC2)cc1`, `O=C(CNC1CCCCCC1)Nc1ccc(S(=O)(=O)NC2CC2)cc1` is higher in “hERG current change (%, negative = inhibition) at 1uM” value: 9.62% for the first, 10.3% for the second.

Going from `CCOc1ccc(NC(=O)c2sc3nc4n(c(=O)c3c2C)CCC4)cc1` to `CCOc1ccc(NC(N)=O)cc1`, the “hERG current change (%, negative = inhibition) at 1uM” value rises from 6.67% to 7.81%.

Compared with `O=C(O)c1ccc(N/N=C/c2ccncc2)cc1`, `O=C(NCCc1ccncc1)Nc1cccc(Cl)c1` is higher in “hERG current change (%, negative = inhibition) at 1uM” value: 10% for the first, 13.3% for the second.

First: Cc1nc2ccccn2c1/C(O)=C1\C(=O)C(=O)N(CCN2CCOCC2)C1c1ccncc1 (stereo not drawn)
Second: Cc1nc2ccccn2c(=O)c1CCN1CCC(C(=O)c2ccc(F)cc2)CC1
The “hERG current change (%, negative = inhibition) at 1uM” value of the first is higher: 2.26% for the first, -66.2% for the second.

First: CC1CCC(NC(=O)CCS(=O)(=O)c2ccc3c(c2)oc(=O)n3C)CC1 (stereo not drawn)
Second: COc1ccc(OC)c(S(=O)(=O)N2CCC(C(=O)NC3CCCC3)CC2)c1
The “hERG current change (%, negative = inhibition) at 1uM” value of the first is higher: 12.3% for the first, 9.23% for the second.

Going from `Cc1nc(C)c(C(=O)N2CCCC(C(=O)c3ccc4ccccc4c3)C2)s1` (stereo not drawn) to `O=C(NCc1ccccc1)c1ccc2c(=O)[nH]c3c(C(=O)NCC4CCCO4)sc(=S)n3c2c1` (stereo not drawn), the “hERG current change (%, negative = inhibition) at 1uM” value rises from -2.83% to 6.43%.

Compared with `Cc1cc(Nc2ccc(Br)cc2)n2nc(C)nc2n1`, `Cc1cc(C)n2nc(SCCCC(=O)c3ccccc3)nc2n1` is higher in “hERG current change (%, negative = inhibition) at 1uM” value: -17.1% for the first, 6.04% for the second.

Compared with `CCN(CC)C(=O)c1oc2ccc(S(=O)(=O)N3CCCCCC3)cc2c1C`, `CNC(=O)CN1C(=O)COc2ccc(S(=O)(=O)N3CCCCCC3)cc21` is higher in “hERG current change (%, negative = inhibition) at 1uM” value: 7.35% for the first, 19.3% for the second.

Going from `COc1ccccc1NC(=O)CSc1nnc(CNC(=O)c2ccco2)n1C` to `CC1CCCC(NC(=O)COC(=O)c2ccccc2NC(=O)c2ccco2)C1C` (stereo not drawn), the “hERG current change (%, negative = inhibition) at 1uM” value falls from 10.2% to 7.45%.

Compared with `COCCCn1c(O)c(/C=C2\N=C(C#N)C(=Nc3ccc(C)cc3)O2)sc1=S`, `COCCn1c(SCC(=O)Nc2ccc3c(c2)OCCO3)nc2c(c1=O)SC(C)C2` (stereo not drawn) is lower in “hERG current change (%, negative = inhibition) at 1uM” value: 17% for the first, 6.73% for the second.

First: CN1CCC2(CC1)N=C(c1ccc(F)cc1)C(=S)N2
Second: CCOC(=O)C1(Cc2ccc(OC)cc2)CCN(C(=O)c2cc(C)nn2C)CC1
The “hERG current change (%, negative = inhibition) at 1uM” value of the first is higher: 5.62% for the first, -20.2% for the second.

Going from `CCCCCOC(=O)Cc1c(C)nc(-c2ccccc2)[nH]c1=O` to `CCOC(=O)c1c(NC(=S)Nc2ccccc2)sc(C)c1C`, the “hERG current change (%, negative = inhibition) at 1uM” value falls from 9.71% to 4.82%.

Going from `COc1ccc(OC)c(S(=O)(=O)N2CCCCCC2)c1` to `COc1ccc(C(=O)N(C)C2CCCCC2)cc1S(=O)(=O)N1CCOCC1`, the “hERG current change (%, negative = inhibition) at 1uM” value falls from 8.94% to 3.56%.

Going from `Cn1c(=O)c2c(nc(Oc3ccccc3)n2C)n(C)c1=O` to `Cc1ccc(C)n1-n1cnc2sc(-c3ccccc3)cc2c1=O`, the “hERG current change (%, negative = inhibition) at 1uM” value rises from 2.92% to 11.7%.

Going from `O=C1C2C3C=CC(C3)C2C(=O)N1c1n[nH]c(CCc2ccccc2)n1` (stereo not drawn) to `CC(C)CCNC(=O)C1CCC(=O)N1CCc1ccccc1` (stereo not drawn), the “hERG current change (%, negative = inhibition) at 1uM” value falls from 14.5% to 12.2%.

Compared with `CN(C(=O)COC(=O)C1CCN(S(=O)(=O)c2c(Cl)cccc2Cl)CC1)c1ccccc1`, `O=C(NCCc1ccccc1)C1CCN(S(=O)(=O)c2cccs2)CC1` is lower in “hERG current change (%, negative = inhibition) at 1uM” value: 3.59% for the first, 1.8% for the second.

Compared with `Cc1c(C(=O)NCCSCc2ccccc2)cccc1[N+](=O)[O-]`, `O=C(Nc1cc2cccc([N+](=O)[O-])c2oc1=O)c1cccs1` is lower in “hERG current change (%, negative = inhibition) at 1uM” value: 13.2% for the first, 12.9% for the second.

Compared with `Brc1ccc(-c2nnc(-c3ccc4c(c3)OCO4)o2)o1`, `O=C1OCCC1Sc1nnc(-c2ccc(Cl)cc2Cl)o1` (stereo not drawn) is lower in “hERG current change (%, negative = inhibition) at 1uM” value: 9.81% for the first, 4.66% for the second.

Going from `CCN(CC)c1ccc(/C=N/NC(=O)C(O)(c2ccccc2)c2ccccc2)o1` to `C/C=C(\C)C(=O)Nc1cccc(C2=NOC3(C2)C[C@H](C(N)=O)N(C(=O)C(c2ccccc2)c2ccccc2)C3)c1` (stereo partly drawn), the “hERG current change (%, negative = inhibition) at 1uM” value rises from 1.15% to 13.3%.

Compared with `O=C(NC(=O)c1ccc(Cl)cc1)OC1CCCCC1`, `C/C(CC(=O)NC1CCCCC1)=N\NC(=O)c1ccc(Br)cc1` is higher in “hERG current change (%, negative = inhibition) at 1uM” value: 3.28% for the first, 8.83% for the second.

Going from `O=C(Nc1ccc([N+](=O)[O-])cc1)C1CC12CCC2` (stereo not drawn) to `CC1(C)Cc2cccc(OCC(=O)Nc3ccc(S(N)(=O)=O)cc3)c2O1`, the “hERG current change (%, negative = inhibition) at 1uM” value falls from 8.41% to 5.94%.

Compared with `O=C(CC1CCCC1)NCCS(=O)(=O)N1CCN(c2ccccc2F)CC1`, `CCOC(=O)C1CCN(C(=O)c2cc(S(=O)(=O)N(C)C)ccc2N2CCCC2)CC1` is lower in “hERG current change (%, negative = inhibition) at 1uM” value: 5.53% for the first, -7.41% for the second.

Compared with `CC(C)C[C@H](NC(=O)NCc1ccc(Cl)cc1)C(=O)O`, `CCCCCCNC(=O)CC(NS(=O)(=O)c1ccc(NC(C)=O)cc1)C(C)C` (stereo not drawn) is lower in “hERG current change (%, negative = inhibition) at 1uM” value: 9.7% for the first, -0.978% for the second.

First: COc1ccccc1N(CC(=O)NC1CCCCC1)C(=O)CNC(=O)c1cccs1
Second: C/C(CC(=O)NC1CCCC1)=N\NC(=O)c1ccc([N+](=O)[O-])c(Cl)c1
The “hERG current change (%, negative = inhibition) at 1uM” value of the first is lower: 10.5% for the first, 13.8% for the second.

Going from `O=C(Nc1ccccc1C(=O)O)c1cc(S(=O)(=O)N2CCCCC2)cs1` to `O=S(=O)(Nc1nc2ccccc2nc1Nc1cccc(S(=O)(=O)N2CCCCC2)c1)c1ccccc1`, the “hERG current change (%, negative = inhibition) at 1uM” value falls from 12.6% to 3.86%.

Compared with `CCOc1ccc(NS(=O)(=O)c2cc(C(=O)NCC3CCCO3)ccc2Cl)cc1` (stereo not drawn), `CCCCNC(=O)c1c[nH]c2ccc(S(=O)(=O)Nc3ccc(OCC)cc3)cc2c1=O` is lower in “hERG current change (%, negative = inhibition) at 1uM” value: 21.8% for the first, 1.53% for the second.

Going from `COC(=O)c1c(NC(=O)Cc2cccs2)sc2c1CCC(C)C2` (stereo not drawn) to `CCOC(=O)c1c(NC(=O)C[n+]2ccc(Cc3ccccc3)cc2)sc(C)c1C.[Cl-]`, the “hERG current change (%, negative = inhibition) at 1uM” value rises from 2.54% to 6.34%.

Going from `OC1(c2cccc(C(F)(F)F)c2)CCN(Cc2nnnn2Cc2ccccc2)CC1` to `Cc1cccc(NC(=O)c2nnn(-c3cccc(C(F)(F)F)c3)c2N)c1`, the “hERG current change (%, negative = inhibition) at 1uM” value falls from 9.44% to -0.184%.

Compared with `CSc1nnc(CCNS(=O)(=O)c2ccccc2Br)n1C`, `COC(=O)c1sc(N)c(C(=O)OC)c1CSc1nnc(-c2ccccc2Cl)n1C` is lower in “hERG current change (%, negative = inhibition) at 1uM” value: 15.3% for the first, 7.57% for the second.

Going from `COc1ccc(C(C(=O)NCC2CCCO2)N(C(=O)c2snc(C(N)=O)c2N)c2ccccc2C)cc1OC` (stereo not drawn) to `COc1ccc(CCNS(=O)(=O)c2cc3c4c(c2)C(C)C(=O)N4CCC3)cc1OC` (stereo not drawn), the “hERG current change (%, negative = inhibition) at 1uM” value rises from 0.284% to 18.7%.

Compared with `COc1ccc(/C=C(\C#N)C(=O)Nc2cccc3ncccc23)cc1OC.Cl`, `COc1ccccc1C(C)Nc1nc(-c2cccnc2)nc2ccccc12` (stereo not drawn) is higher in “hERG current change (%, negative = inhibition) at 1uM” value: 3.7% for the first, 12.2% for the second.

First: Cc1ccccc1C1C(C#N)=C(N)N(N(C)C)C2=C1C(=O)CC(C)(C)C2 (stereo not drawn)
Second: CCCCOC(=O)C1=C(C)Nc2ncnn2C1c1ccc(OC)c(OC)c1OC (stereo not drawn)
The “hERG current change (%, negative = inhibition) at 1uM” value of the first is higher: -1.65% for the first, -8.06% for the second.

First: Cc1nn(Cc2c(F)c(F)c(F)c(F)c2F)c(C)c1NC(=O)c1ccc(COc2cc(Cl)ccc2Cl)cc1
Second: Cc1noc(C)c1C(=O)NNc1cc(Cl)ccc1Cl
The “hERG current change (%, negative = inhibition) at 1uM” value of the first is lower: 3.37% for the first, 14.6% for the second.

First: Fc1ccc(NC(=S)N2CCCC2)cc1Cl
Second: Cc1ccc(NC(=S)NC(=O)c2cncc(Br)c2)cc1Cl
The “hERG current change (%, negative = inhibition) at 1uM” value of the first is lower: 12.9% for the first, 25.6% for the second.

First: CC(C)(C)NC(=O)COc1coc(CN2CCN(Cc3ccccc3)CC2)cc1=O
Second: O=C(CCn1c(=O)c2sccc2n(CC(=O)OCc2ccccc2)c1=O)NCc1ccco1
The “hERG current change (%, negative = inhibition) at 1uM” value of the first is higher: 3.39% for the first, -11.6% for the second.

Compared with `COc1cc(C(=O)Nc2cc(C)c(OCC(=O)N3CCOCC3)c(C)c2)cc(OC)c1OC`, `CCN(CC)c1cc(C)c2cc(NC(=O)CNC(C)=O)ccc2n1` is lower in “hERG current change (%, negative = inhibition) at 1uM” value: 10.5% for the first, 3.2% for the second.

Going from `Cc1onc(-c2ccccc2)c1CNS(=O)(=O)c1cccc(Cl)c1` to `O=c1[nH]c2ccccc2nc1C(Cl)c1ccccc1` (stereo not drawn), the “hERG current change (%, negative = inhibition) at 1uM” value falls from 7.23% to 1.52%.

Going from `C1CC(CN2CCOCC2)CN(c2nc3nonc3nc2N2CCSCC2)C1` (stereo not drawn) to `CC(Sc1nnc(-c2cccnc2)n1N)C(=O)N1CCOCC1` (stereo not drawn), the “hERG current change (%, negative = inhibition) at 1uM” value falls from 17.4% to -2.12%.

First: CSc1ccc(/C=N/NC(=O)c2sccc2C)cc1
Second: CCN(CC(=O)Nc1c(F)cccc1F)C(=O)c1ccc(C#N)cc1
The “hERG current change (%, negative = inhibition) at 1uM” value of the first is higher: 12.6% for the first, 8.99% for the second.

Going from `CCCSc1ncc(Cl)c(C(=O)Nc2ccc(S(=O)(=O)N3CC(C)OC(C)C3)cc2)n1` (stereo not drawn) to `O=C(NCCNC(=O)c1ccc(Cl)cc1Cl)c1cnccn1`, the “hERG current change (%, negative = inhibition) at 1uM” value rises from -7.58% to 6.54%.

Compared with `COc1ccccc1-c1ccc(SCc2ccc(C)cc2)nn1`, `O=C(c1ccco1)N1N=C(c2ccccc2)CC1c1ccc2nccnc2c1` (stereo not drawn) is lower in “hERG current change (%, negative = inhibition) at 1uM” value: 9.22% for the first, 0.01% for the second.

Compared with `Nc1cc(N)nc(SCCN2CCCCC2)n1`, `COC(=O)[C@@H]1CCCN1C(=O)CCc1nnc(C2CCCCC2)o1` is higher in “hERG current change (%, negative = inhibition) at 1uM” value: 6.82% for the first, 10.1% for the second.

With `Cc1cc(C)nc(SCC(=O)Nn2cnnc2)n1` the “hERG current change (%, negative = inhibition) at 1uM” value was 17.2%.
